Earlier results on 1 molecule are cited in patent US9539367B2, “Gallium inhibits biofilm formation” (priority 2003, dated 2017).

In the series the target is RR tyrosyl radical (Mus musculus, UniProt P11157). Particulars: cell free extract of mammalian L1210 cells; Narasimhan et al., 1992; read-out: concentration required to decrease the EPR peak of the RR tyrosyl radical by 50%; cited from earlier work.
Chain of RR tyrosyl radical (P11157 whole entry): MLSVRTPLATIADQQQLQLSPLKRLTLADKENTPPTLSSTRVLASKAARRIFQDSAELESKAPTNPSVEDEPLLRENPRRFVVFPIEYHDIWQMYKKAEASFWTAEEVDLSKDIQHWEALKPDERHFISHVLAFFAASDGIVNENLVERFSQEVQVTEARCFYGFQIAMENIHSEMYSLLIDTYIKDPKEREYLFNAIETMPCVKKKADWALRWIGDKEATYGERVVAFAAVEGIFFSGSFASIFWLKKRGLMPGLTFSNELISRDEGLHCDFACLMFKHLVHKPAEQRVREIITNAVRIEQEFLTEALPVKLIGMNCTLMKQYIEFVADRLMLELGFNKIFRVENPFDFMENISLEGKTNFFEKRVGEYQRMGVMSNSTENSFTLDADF

As to `[Ga+3]` [gallium], the IC50 is 16 mM.
